# Experimental data from the supplement of paper PMC8183993.
# Values joined by “and” are separate entries in the source; they are usually repeats but may differ in a detail not shown here. Equal values may be shown once. Where a name gives a salt, the structure may show the parent alone. ± gives the standard deviation of the averaged measurements. Over roughly 3,100 compounds, “mean cytoplasmic OPP incorporation (global translation) relative to DMSO” has its median near 100; the lowest 2% begin near 56. The list shows a part of the results.
# Test system: U2OS
# Assay: mean cytoplasmic OPP incorporation (global translation) relative to DMSO (% of DMSO); higher = more protein synthesis
# Settings: 10 µM; 24 h
# Description: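 Primary image-based screen in U2OS cells: compounds at 10 uM for 24 h, then a 1 h o-propargyl-puromycin (OPP) pulse, click labelling, and high-throughput microscopy. Mean cytoplasmic OPP intensity and nuclei count were normalised to DMSO wells within each plate (DMSO = 100) and averaged over triplicate plates.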
row,Structure (SMILES),mean cytoplasmic OPP incorporation
1,COc1c(C)c(C(=O)c2ccc(N)c(C(=O)O)c2)n2ccccc12,105
2,CCCCC/N=c1\ccn(Cc2ccccc2)c2ccccc12,96.1
3,O=C1c2c(O)cccc2Cc2cccc(O)c21 [Anthralin],94.4
4,CN1c2cc3c(cc2N=C(c2ccc(C(=O)O)cc2)c2ccccc21)C(C)(C)CCC3(C)C,99.4
5,COc1nccc(-c2c(-c3ccc(F)cc3)ncn2C2CCC(O)CC2)n1 (configuration not stated),90.8
6,O/N=C/c1ccc(-c2ccc(O)c(F)c2)c(Cl)c1O,105
7,N=C(NC(=O)c1nc(Cl)c(N)nc1N)Nc1ccccc1 [Phenamil],101
8,COc1ccc2c(c1)CCC1C2CCC2(C)C(NCCCCCCN3C(=O)C=CC3=O)CCC12 (configuration not stated),99.5
9,COc1ccc(-c2ccc3c(N4CCOC[C@@H]4C)nc(N4CCOC[C@@H]4C)nc3n2)cc1CO,66.3
10,COC(=O)C1=C(C)NC(C)=C([N+](=O)[O-])C1c1ccccc1C(F)(F)F (configuration not stated),105
11,COc1cc(C(=O)OCCCN2CCCN(CCCOC(=O)c3cc(OC)c(OC)c(OC)c3)CC2)cc(OC)c1OC [Dilazep dihydrochloride],112 ± 3.6
12,CC(C)C[C@H](NP(=O)(O)O[C@@H]1O[C@@H](C)[C@H](O)[C@@H](O)[C@H]1O)C(=O)N[C@@H](Cc1c[nH]c2ccccc12)C(=O)O [Phosphoramidon],105
13,O=C(/C=C/C#Cc1cccc(NS(=O)(=O)c2ccccc2)c1)NO [Oxamflatin],105
14,Cc1cn[nH]c1 [Fomepizole],108
15,C[C@@H](NCCCc1cccc(C(F)(F)F)c1)c1cccc2ccccc12 [AMG-073 HCl (Cinacalcet HCl)],107
16,CC(=O)Nc1cccc(-n2c(=O)n(C3CC3)c(=O)c3c(Nc4ccc(I)cc4F)n(C)c(=O)c(C)c32)c1,92.6
17,Nc1[nH]cnc2ncnc1-2 [Adenine],113
18,Nc1[nH]cnc2ncnc1-2 [Adenine sulfate],94
19,CC[N+](C)(C)c1cccc(O)c1 [Edrophonium chloride],90.8
20,Cc1ccc(-c2csc3ncnc(SCCC(=O)O)c23)cc1,102
21,COc1ccc(CCN(C)CCCOc2ccc(S(=O)(=O)c3c(C(C)C)n(C)c4ccccc34)cc2)cc1OC,114
22,NCCc1c[nH]cn1 [Histamine dihydrochloride],95.5
23,OC(Cn1cncn1)(Cn1cncn1)c1ccc(F)cc1F [Fluconazole],95.5
24,CCCOc1cc(N)ccc1C(=O)OCCN(CC)CC [Propoxycaine hydrochloride],99
25,CC(=O)OCC(=O)[C@@]1(O)CC[C@H]2[C@@H]3CCC4=CC(=O)CC[C@]4(C)[C@H]3[C@@H](O)C[C@@]21C [Cortisol acetate],98
26,CC(C)c1c(C(=O)Nc2ccccc2)c(-c2ccccc2)c(-c2ccc(F)cc2)n1CC[C@@H](O)C[C@@H](O)CC(=O)O [Atorvastatin],106

row,Structure (SMILES),mean cytoplasmic OPP incorporation
1,Cc1ncc(C[n+]2csc(CCO)c2C)c(N)n1 [Thiamine hydrochloride],101
2,CCN[C@H]1CN(CCCOC)S(=O)(=O)c2sc(S(N)(=O)=O)cc21 [Brinzolamide],105
3,CC(C)Oc1ccc(-c2c[nH]cc2CN(C)CCN)cc1,100
4,NS(=O)(=O)c1cc(C2(O)NC(=O)c3ccccc32)ccc1Cl (configuration not stated) [Chlorthalidone],96
5,C=CC(N)CCC(=O)O (configuration not stated) [Vigabatrin],95.4
6,CC(C)(C)c1cnc(CSc2cnc(NC(=O)C3CCNCC3)s2)o1,75.6
7,CCCCCCCCCCCCCCCC(=O)OC/C=C(C)/C=C/C=C(C)/C=C/C1=C(C)CCCC1(C)C [Retinyl palmitate],92.4
8,CC(=O)OCC(=O)[C@@]1(O)CC[C@H]2[C@@H]3CCC4=CC(=O)CC[C@]4(C)[C@@]3(F)[C@@H](O)C[C@@]21C [Fludrocortisone acetate],91.8
9,CC(=Cc1ccc(C(=O)O)cc1)c1ccc2c(c1)C(C)(C)CCC2(C)C,101.8 ± 0.51
10,COC(=O)C1=C(C)NC(C)=C(C(=O)OCCCN2CCC(c3ccccc3)(c3ccccc3)CC2)[C@@H]1c1cccc([N+](=O)[O-])c1 [(R)-(-)-Niguldipine hydrochloride],115
11,COC(=O)Nc1nc2cc(C(=O)c3cccs3)ccc2[nH]1 [Nocodazole],88.3 ± 8.4
12,Cc1ccc(C(=O)c2ccc(CC(=O)O)n2C)cc1 [Tolmetin sodium salt dihydrate],98
13,CCCCN(CCCC)CCCOC(=O)c1ccc(N)cc1 [Butacaine],105
14,O=C(O)CN1C(=O)c2cccc3cccc(c23)C1=O [Alrestatin],96.7
15,CC[N+](C)(CC)CCOC(=O)C1c2ccccc2Oc2ccccc21 [Methantheline bromide],108
16,CC(C)(O)[C@H]1CC[C@@](C)([C@H]2[C@@H](O)C[C@@]3(C)[C@@H]4C[C@H](O[C@@H]5O[C@H](CO)[C@@H](O)[C@H](O)[C@H]5O)[C@H]5C(C)(C)[C@@H](O[C@@H]6OC[C@@H](O)[C@H](O)[C@H]6O)CC[C@@]56C[C@@]46CC[C@]23C)O1 [Astragaloside A],103
17,NNCCc1ccccc1 [Phenelzine sulfate],75
18,C=C1CC[C@H](O)C/C1=C/C=C1\CCC[C@]2(C)[C@@H]([C@H](C)CCCC(C)C)CC[C@@H]12 [Vitamin D3 (Cholecalciferol)],99.5
19,CC(=O)Nc1ccc(C(=O)Nc2ccccc2N)cc1,57.3 ± 33
20,COc1cc2c(Nc3ccc(NC(=O)c4ccccc4)cc3)ncnc2cc1OCCCN1CCOCC1,124 and 114
21,O=C(O)[C@]1(Cc2cccc(Nc3nccs3)n2)CC[C@@H](Oc2cccc(Cl)c2F)CC1,96.6 ± 7
22,COc1cc2c(NC3CCN(C(C)C)CC3)nc(C3CCCCC3)nc2cc1OCCCN1CCCC1,99.4
23,CC(Cc1cccc(C(F)(F)F)c1)NCCOC(=O)c1ccccc1 (configuration not stated) [Benfluorex hydrochloride],105
24,CC(=O)S[C@@H]1CC2=CC(=O)CC[C@]2(C)[C@H]2CC[C@@]3(C)[C@@H](CC[C@@]34CCC(=O)O4)[C@H]12 [Spironolactone],99.666 ± 0.067
25,C#Cc1cccc(Nc2ncnc3cc(OC)c(OCCCCCCC(=O)NO)cc23)c1,87.3 ± 11
26,CCCc1cc(C(N)=S)ccn1 [Prothionamide],101

row,Structure (SMILES),mean cytoplasmic OPP incorporation
1,CO[C@H]1/C=C/O[C@@]2(C)Oc3c(C)c(O)c4c(O)c(c(/C=N/N5CCN(C6CCCC6)CC5)c(O)c4c3C2=O)NC(=O)/C(C)=C\C=C\[C@H](C)[C@H](O)[C@@H](C)[C@@H](O)[C@@H](C)[C@H](OC(C)=O)[C@@H]1C [Rifapentine],115
2,CC(C)(C)NC[C@@H](O)COc1cccc2c1CCCC2=O [(+) -Levobunolol hydrochloride],104
3,N=C(N)NC(=N)NCCc1ccccc1 [Phenformin hydrochloride],99.4 ± 7.9
4,COC(=O)[C@@H](N)CSC/C=C(\C)CC/C=C(\C)CCC=C(C)C [S-Farnesyl-L-cysteine methyl ester],95.9
5,CN1CCC(=C2c3ccccc3C=Cc3ccccc32)CC1 [Cyproheptadine hydrochloride],101 ± 4.8
6,CNC1CCCN(c2c(F)cc3c(=O)c(C(=O)O)cn(C4CC4)c3c2OC)C1 (configuration not stated) [Balofloxacin],101
7,C[C@H]1O[C@H](O[C@H]2[C@H](O)[C@@H](O)[C@@H](O[C@H]3[C@H](O)[C@@H](O)C(O)O[C@@H]3CO)O[C@@H]2CO)[C@H](O)[C@@H](O)[C@@H]1N[C@H]1C=C(CO)[C@@H](O)[C@H](O)[C@H]1O (some centres not stated) [Acarbose],102 ± 2.2
8,CC(C)(C=O)Cc1cc(C(C)(C)C)c(O)c(C(C)(C)C)c1,98.4
9,"Nc1ccc(CC(CC(=O)O)C(=O)O)cc1 [4-Amino-D, L-benzylsuccinic acid]",104
10,CCCCN1CCCC1CNC(=O)c1cc(C#N)c2ccccc2c1OC (configuration not stated) [Nafadotride],100
11,CC(=O)Nc1nc(C)c(-c2ccc(Cl)c(S(=O)(=O)NCCO)c2)s1,90.6
12,CN(Cc1ccccc1)C(=O)[C@H](Cc1ccc2ccccc2c1)NC(=O)[C@@H]1CCCN1C(=O)Nc1ccccc1[N+](=O)[O-],108
13,OC[C@H]1O[C@@H](Oc2cc(O)cc(/C=C/c3ccc(O)cc3)c2)[C@H](O)[C@@H](O)[C@@H]1O [Polydatin (Piceid)],96.3
14,O=c1c(O)c(-c2ccc(O)cc2O)oc2cc(O)cc(O)c12 [Morin hydrate (Aurantica)],101
15,CC(/C=C/c1cccc(Oc2ccc(F)cc2)c1)N(O)C(N)=O (configuration not stated),93
16,COc1ccc(C2CNC(=O)C2)cc1OC1CCCC1 (configuration not stated) [Rolipram],100 ± 7.2
17,Nc1c(S(=O)(=O)O)cc(Nc2cccc3ccccc23)c2c1C(=O)c1ccccc1C2=O,97.9
18,CCCCC(F)(F)[C@@]1(O)CC[C@H]2[C@@H](CC(=O)[C@@H]2CCCCCCC(=O)O)O1 [Lubiprostone (Amitiza)],111
19,COc1ccc(F)c(F)c1C(=O)c1cnc(NC2CCN(S(C)(=O)=O)CC2)nc1N,61.4 ± 14
20,O=C1OCCN1/N=C/c1ccc([N+](=O)[O-])o1 [Furazolidone],78.2
21,CCOC(=O)[C@H](CCc1ccccc1)N[C@H]1CS[C@H](c2cccs2)CN(CC(=O)O)C1=O [Temocapril HCl],101
22,c1ccc([C@H]2CN3CCSC3=N2)cc1 [Levamisole hydrochloride],93.9
23,c1ccc([C@H]2CN3CCSC3=N2)cc1 [Levamisole HCl],107
24,O=C1C[C@@H](c2ccc(O)cc2)Oc2cc(O)cc(O)c21 [Naringenin],107
25,CCC(=O)O[C@]1(C(=O)CCl)[C@@H](C)C[C@H]2[C@@H]3CCC4=CC(=O)C=C[C@]4(C)[C@@]3(F)[C@@H](O)C[C@@]21C [Clobetasol propionate],105 ± 2.9
